# Experimental data as given in the supplement of paper PMC8728848.
# Some of the results follow.
# Experiments:
# Experiment in all cases: glycan array binding signal (z-score within array); higher = stronger binding
# Details in all cases: glycan notation: IUPAC condensed, linker removed
# [1] = target: Man(a1-2)Man(a1-2)Man(a1-3)Man
# Summary of the method: (§1)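 The Consortium for Functional Glycomics database supplied 3228 glycan arrays, of which those lacking an available protein sequence were dropped. The binding signal, a within-array Z-score, was averaged across arrays of the same protein sequence and across linkers. Negative scores can be read as non-binding.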
# [2] = target: Man(a1-2)Man(a1-2)Man(a1-6)[Man(a1-3)]Man
# Summary of the method: as §1
# [3] = target: Man(a1-2)Man(a1-3)Man
# Summary of the method: as §1
# [4] = target: Man(a1-2)Man(a1-3)[Man(a1-2)Man(a1-6)]Man
# Summary of the method: as §1
# [5] = target: Man(a1-2)Man(a1-3)[Man(a1-2)Man(a1-6)]Man(a1-6)[Man(a1-2)Man(a1-2)Man(a1-3)]Man(b1-4)GlcNAc(b1-4)GlcNAc
# Summary of the method: as §1
# [6] = target: Man(a1-2)Man(a1-3)[Man(a1-6)]Man(a1-6)[Man(a1-2)Man(a1-3)]Man(b1-4)GlcNAc(b1-4)GlcNAc
# Summary of the method: as §1
# [7] = target: Man(a1-2)Man(a1-6)[Man(a1-3)]Man(a1-6)[Man(a1-2)Man(a1-2)Man(a1-3)]Man(b1-4)GlcNAc(b1-4)GlcNAc
# Summary of the method: as §1
# [8] = target: Man(a1-3)[Man(a1-6)]Man
# Summary of the method: as §1
# [9] = target: Man(a1-3)[Man(a1-6)]Man(a1-6)[Man(a1-2)Man(a1-3)]Man(b1-4)GlcNAc(b1-4)GlcNAc
# Summary of the method: as §1
# [10] = target: Man(a1-3)[Man(a1-6)]Man(a1-6)[Man(a1-3)]Man(b1-4)GlcNAc(b1-4)GlcNAc
# Summary of the method: as §1
# [11] = target: Man(a1-3)[Man(a1-6)]Man(b1-4)GlcNAc(b1-4)GlcNAc
# Summary of the method: as §1
# [12] = target: Man(b1-4)GlcNAc
# Summary of the method: as §1
# [13] = target: Neu5Ac(a2-3)Gal
# Summary of the method: as §1
# [14] = target: Neu5Ac(a2-3)Gal(b1-3)GalNAc
# Summary of the method: as §1
# [15] = target: Neu5Ac(a2-3)Gal(b1-3)GalNAc(b1-3)Gal(a1-4)Gal(b1-4)Glc
# Summary of the method: as §1
# [16] = target: Neu5Ac(a2-3)Gal(b1-3)GalNAc(b1-3)Gal(b1-4)GlcNAc
# Summary of the method: as §1
# [17] = target: Neu5Ac(a2-3)Gal(b1-3)GalNAc(b1-4)[Neu5Ac(a2-3)]Gal(b1-4)Glc
# Summary of the method: as §1
# [18] = target: Neu5Ac(a2-3)Gal(b1-3)GalNAc6S
# Summary of the method: as §1
# [19] = target: Neu5Ac(a2-3)Gal(b1-3)GlcNAc
# Summary of the method: as §1
# [20] = target: Neu5Ac(a2-3)Gal(b1-3)GlcNAc6S
# Summary of the method: as §1
# [21] = target: Neu5Ac(a2-3)Gal(b1-3)[Fuc(a1-4)]GlcNAc
# Summary of the method: as §1
# [22] = target: Neu5Ac(a2-3)Gal(b1-3)[Fuc(a1-4)]GlcNAc(b1-3)Gal(b1-4)[Fuc(a1-3)]GlcNAc
# Summary of the method: as §1
# [23] = target: Neu5Ac(a2-3)Gal(b1-3)[Neu5Ac(a2-3)Gal(b1-4)]GlcNAc
# Summary of the method: as §1
# [24] = target: Neu5Ac(a2-3)Gal(b1-3)[Neu5Ac(a2-6)]GalNAc
# Summary of the method: as §1
# [25] = target: Neu5Ac(a2-3)Gal(b1-4)Glc
# Summary of the method: as §1
# [26] = target: Neu5Ac(a2-3)Gal(b1-4)GlcNAc
# Summary of the method: as §1
# [27] = target: Neu5Ac(a2-3)Gal(b1-4)GlcNAc(b1-2)Man(a1-3)[Neu5Ac(a2-3)Gal(b1-4)GlcNAc(b1-2)Man(a1-6)]Man(b1-4)GlcNAc(b1-4)GlcNAc
# Summary of the method: as §1
# [28] = target: Neu5Ac(a2-3)Gal(b1-4)GlcNAc(b1-3)Gal(b1-4)GlcNAc
# Summary of the method: as §1
# [29] = target: Neu5Ac(a2-3)Gal(b1-4)GlcNAc(b1-3)Gal(b1-4)GlcNAc(b1-3)Gal(b1-4)GlcNAc
# Summary of the method: as §1
# [30] = target: Neu5Ac(a2-3)Gal(b1-4)GlcNAc(b1-3)Gal(b1-4)[Fuc(a1-3)]GlcNAc
# Summary of the method: as §1
# [31] = target: Neu5Ac(a2-3)Gal(b1-4)GlcNAc6S
# Summary of the method: as §1
# [32] = target: Neu5Ac(a2-3)Gal(b1-4)[Fuc(a1-3)]GlcNAc
# Summary of the method: as §1
# [33] = target: Neu5Ac(a2-3)Gal(b1-4)[Fuc(a1-3)]GlcNAc(b1-3)Gal
# Summary of the method: as §1
# [34] = target: Neu5Ac(a2-3)Gal(b1-4)[Fuc(a1-3)]GlcNAc(b1-3)Gal(b1-4)GlcNAc
# Summary of the method: as §1
# [35] = target: Neu5Ac(a2-3)Gal(b1-4)[Fuc(a1-3)]GlcNAc(b1-3)Gal(b1-4)[Fuc(a1-3)]GlcNAc(b1-3)Gal(b1-4)[Fuc(a1-3)]GlcNAc
# Summary of the method: as §1
# [36] = target: Neu5Ac(a2-3)Gal(b1-4)[Fuc(a1-3)]GlcNAc6S
# Summary of the method: as §1
# [37] = target: Neu5Ac(a2-3)Gal6S(b1-4)GlcNAc
# Summary of the method: as §1
# [38] = target: Neu5Ac(a2-3)Gal6S(b1-4)[Fuc(a1-3)]GlcNAc
# Summary of the method: as §1
# [39] = target: Neu5Ac(a2-3)GalNAc
# Summary of the method: as §1
# [40] = target: Neu5Ac(a2-3)GalNAc(b1-4)GlcNAc
# Summary of the method: as §1
# [41] = target: Neu5Ac(a2-3)[GalNAc(b1-4)]Gal(b1-4)Glc
# Summary of the method: as §1
# [42] = target: Neu5Ac(a2-3)[GalNAc(b1-4)]Gal(b1-4)GlcNAc
# Summary of the method: as §1
# [43] = target: Neu5Ac(a2-3)[Neu5Ac(a2-6)]GalNAc
# Summary of the method: as §1
# [44] = target: Neu5Ac(a2-6)Gal
# Summary of the method: as §1
# [45] = target: Neu5Ac(a2-6)Gal(b1-4)Glc
# Summary of the method: as §1
# [46] = target: Neu5Ac(a2-6)Gal(b1-4)GlcNAc
# Summary of the method: as §1
# [47] = target: Neu5Ac(a2-6)Gal(b1-4)GlcNAc(b1-3)Gal(b1-4)GlcNAc
# Summary of the method: as §1
# [48] = target: Neu5Ac(a2-6)Gal(b1-4)GlcNAc(b1-3)Gal(b1-4)[Fuc(a1-3)]GlcNAc(b1-3)Gal(b1-4)[Fuc(a1-3)]GlcNAc
# Summary of the method: as §1
# [49] = target: Neu5Ac(a2-6)Gal(b1-4)GlcNAc6S
# Summary of the method: as §1
# [50] = target: Neu5Ac(a2-6)GalNAc
# Summary of the method: as §1
# [51] = target: Neu5Ac(a2-6)GalNAc(b1-4)GlcNAc
# Summary of the method: as §1
# [52] = target: Neu5Ac(a2-8)Neu5Ac
# Summary of the method: as §1
# [53] = target: Neu5Ac(a2-8)Neu5Ac(a2-3)Gal(b1-4)Glc
# Summary of the method: as §1
# [54] = target: Neu5Ac(a2-8)Neu5Ac(a2-3)[GalNAc(b1-4)]Gal(b1-4)Glc
# Summary of the method: as §1
# [55] = target: Neu5Ac(a2-8)Neu5Ac(a2-8)Neu5Ac
# Summary of the method: as §1
# [56] = target: Neu5Ac(a2-8)Neu5Ac(a2-8)Neu5Ac(a2-3)Gal(b1-4)Glc
# Summary of the method: as §1
# [57] = target: Neu5Ac(a2-8)Neu5Ac(a2-8)Neu5Ac(a2-3)[GalNAc(b1-4)]Gal(b1-4)Glc
# Summary of the method: as §1
# [58] = target: Neu5Ac(a2-8)Neu5Ac(a2-8)Neu5Ac(a2-8)Neu5Ac(a2-3)[GalNAc(b1-4)]Gal(b1-4)Glc
# Summary of the method: as §1
# [59] = target: Neu5Ac(b1-6)GalNAc
# Summary of the method: as §1
# [60] = target: Neu5Ac(b2-6)Gal(b1-4)GlcNAc
# Summary of the method: as §1
# [61] = target: Neu5Ac9Ac(a2-6)Gal(b1-4)GlcNAc
# Summary of the method: as §1
# [62] = target: Neu5Gc(a2-3)Gal(b1-3)GlcNAc
# Summary of the method: as §1
# [63] = target: Neu5Gc(a2-3)Gal(b1-3)[Fuc(a1-4)]GlcNAc
# Summary of the method: as §1
# [64] = target: Neu5Gc(a2-3)Gal(b1-4)Glc
# Summary of the method: as §1
# [65] = target: Neu5Gc(a2-3)Gal(b1-4)GlcNAc
# Summary of the method: as §1
# [66] = target: Neu5Gc(a2-3)Gal(b1-4)[Fuc(a1-3)]GlcNAc
# Summary of the method: as §1
# [67] = target: Neu5Gc(a2-6)Gal(b1-4)GlcNAc
# Summary of the method: as §1
# [68] = target: Neu5Gc(a2-6)GalNAc
# Summary of the method: as §1
binder,measurement,setting,value
CV-IIL (Chromobacterium violaceum) (protein) AQQGVFTLPARINFGVTVLVNSAATQHVEIFVDNEPRAAFSGVGTGDNNLGTKVINSGSGNVRVQITANGRQSDLVSSQLVLANKLNLAVVGSEDGTDMDYNDSIVILNWPLG,glycan array binding signal (z-score),[1],1.6
same,glycan array binding signal (z-score),[2],2.51
same,glycan array binding signal (z-score),[3],1.55
same,glycan array binding signal (z-score),[4],2.5
same,glycan array binding signal (z-score),[5],1.82
same,glycan array binding signal (z-score),[6],2.41
same,glycan array binding signal (z-score),[7],2.64
same,glycan array binding signal (z-score),[8],2.82
same,glycan array binding signal (z-score),[9],2.43
same,glycan array binding signal (z-score),[10],1.88
same,glycan array binding signal (z-score),[11],2.82
same,glycan array binding signal (z-score),[12],-0.494
same,glycan array binding signal (z-score),[13],-0.502
same,glycan array binding signal (z-score),[14],-0.502
same,glycan array binding signal (z-score),[15],-0.499
same,glycan array binding signal (z-score),[16],-0.5
same,glycan array binding signal (z-score),[17],-0.501
same,glycan array binding signal (z-score),[18],-0.502
same,glycan array binding signal (z-score),[19],-0.5
same,glycan array binding signal (z-score),[20],-0.5
same,glycan array binding signal (z-score),[21],1.92
same,glycan array binding signal (z-score),[22],0.938
same,glycan array binding signal (z-score),[23],-0.502
same,glycan array binding signal (z-score),[24],-0.502
same,glycan array binding signal (z-score),[25],-0.499
same,glycan array binding signal (z-score),[26],-0.502
same,glycan array binding signal (z-score),[27],-0.492
same,glycan array binding signal (z-score),[28],-0.498
same,glycan array binding signal (z-score),[29],-0.502
same,glycan array binding signal (z-score),[30],-0.502
same,glycan array binding signal (z-score),[31],-0.502
same,glycan array binding signal (z-score),[32],-0.305
same,glycan array binding signal (z-score),[33],-0.237
same,glycan array binding signal (z-score),[34],-0.296
same,glycan array binding signal (z-score),[35],-0.078
same,glycan array binding signal (z-score),[36],-0.275
same,glycan array binding signal (z-score),[37],-0.402
same,glycan array binding signal (z-score),[38],-0.387
same,glycan array binding signal (z-score),[39],-0.502
same,glycan array binding signal (z-score),[40],-0.501
same,glycan array binding signal (z-score),[41],-0.501
same,glycan array binding signal (z-score),[42],-0.5
same,glycan array binding signal (z-score),[43],-0.501
same,glycan array binding signal (z-score),[44],-0.501
same,glycan array binding signal (z-score),[45],-0.497
same,glycan array binding signal (z-score),[46],-0.502
same,glycan array binding signal (z-score),[47],-0.502
same,glycan array binding signal (z-score),[48],-0.107
same,glycan array binding signal (z-score),[49],-0.501
same,glycan array binding signal (z-score),[50],-0.501
same,glycan array binding signal (z-score),[51],-0.502
same,glycan array binding signal (z-score),[52],-0.511
same,glycan array binding signal (z-score),[53],-0.501
same,glycan array binding signal (z-score),[54],-0.501
same,glycan array binding signal (z-score),[55],-0.501
same,glycan array binding signal (z-score),[56],-0.501
same,glycan array binding signal (z-score),[57],-0.494
same,glycan array binding signal (z-score),[58],-0.495
same,glycan array binding signal (z-score),[59],-0.502
same,glycan array binding signal (z-score),[60],-0.501
same,glycan array binding signal (z-score),[61],-0.502
same,glycan array binding signal (z-score),[62],-0.502
same,glycan array binding signal (z-score),[63],1.61
same,glycan array binding signal (z-score),[64],-0.498
same,glycan array binding signal (z-score),[65],-0.491
same,glycan array binding signal (z-score),[66],-0.375
same,glycan array binding signal (z-score),[67],-0.502
same,glycan array binding signal (z-score),[68],-0.501
